Laboratory results as given in ChEMBL document CHEMBL4888484, “Replenishing the malaria drug discovery pipeline: Screening and hit evaluation of the MMV Hit Generation Library 1 (HGL1) against asexual blood stage Plasmodium falciparum ,using a nano luciferase reporter read-out” (2022).
Screen size: about 150,000 compounds; about 540 (0.36%) showed an effect of 50% or more. Some of the results follow.

System: Plasmodium falciparum
Assay: Primary screen in NF54 nanoGlo assay, in single point, at 2uM, 72h; a lower Z score goes with more inhibition
Format: functional, Erythrocyte
Details: timepoint 72 hour

| SMILES | % Inhibition [%] | Z score |
| --- | --- | --- |
| CCn1cnc2cc(-c3noc(-c4ccccc4)n3)ccc21 | -13 | 1.67 |
| COCCN1C[C@@H](Cc2cccc(-n3cnnc3)c2)CC1=O | -6 | 0.86 |
| Cc1noc(C)c1C(=O)N1CC(F)(F)C[C@H]1c1nc(C2CC2)no1 | -11 | 1.97 |
| O=C(NCCCCn1ccnc1)c1c[nH]nc1-c1c(F)cccc1F | 1 | -0.09 |
| CC(C)n1[nH]c(=O)c2c1NC(=O)C[C@H]2C1CCCCC1 | 35 | -0.88 |
| Cc1c(CNCc2cnc(-c3ccco3)s2)cnn1C | -5 | 0.53 |
| CNC(=O)c1cccc(C(=O)O[C@@H](C)c2cccnc2)c1 | -5 | 0.48 |
| Cn1ccnc1-c1cncc(Br)c1 | -1 | 0.24 |
| COc1ccc2c(c1)OC[C@]1(CO)CN(Cc3ccc(Cl)c(F)c3)C[C@H]21 | -15 | 1.43 |
| Cc1cc(S(C)(=O)=O)cc(C(=O)N[C@H]2CCO[C@@H]2c2cc[nH]n2)c1C | -15 | 2.05 |
| O=C(c1cnccn1)N1CC=C(c2ccccc2)CC1 | -5 | 0.68 |
| CC(=O)N1CCC[C@H](Nc2nc(N)nc3[nH]cnc23)C1 | 0 | 0.04 |
| CC(C)[C@H](NC(=O)c1ccc(Cl)c(F)c1)c1ncnn1C | -4 | 0.76 |
| COc1cc2c(cc1OC)[C@H](c1ccccc1)N(CC(=O)N1CCOCC1)CC2 | -7 | 0.8 |
| CC1=C(C(=O)NCCn2ncnn2)CCC1 | 7 | -1.21 |
| CN(Cc1cscn1)Cc1ncc[nH]1 | -19 | 2.66 |
| COc1ccccc1CNC(=O)c1c(OC)cc(=O)n2c1CCN(Cc1cccc(F)c1)CC2 | -11 | 1.65 |
| CC(C)N(CC1CC2C=CC1C2)C(=O)CCNC(N)=O (stereo not given) | -7 | 0.86 |
| Cc1c(NC(=O)CC2(C(F)(F)F)OCCO2)c(=O)n(-c2ccccc2)n1C | 4 | -0.53 |
| CCN1CCN(c2cc(C)nc3nc(CN(CC)Cc4ccccc4)nn23)CC1 | 7 | -0.87 |
| Cn1c(Cn2cncn2)nnc1C1CCN(c2ncnc3[nH]cnc23)CC1 | -15 | 1.45 |
| c1ccc(C2(CNc3ncnc4[nH]ncc34)CCC2)nc1 | -6 | 1.2 |
| CN(CCCn1ccnc1)C(=O)NC1CCCC1c1ccc(F)cc1 (stereo not given) | -6 | 0.76 |
| O=C1CCc2c(OCc3noc(C4CCCCC4)n3)cccc21 | 9 | -1.12 |
| O=C(Cn1nccn1)N1CCN(Cc2ccc3c(c2)OCO3)CC1 | 2 | -0.28 |
| C=CCCC(=O)Nc1ccc(C(C)=O)c(Cl)c1 | 12 | -1.94 |
| Cc1cc(C)c2[nH]c(C)c(CC(=O)NCCNc3ncccc3C)c2c1 | -14 | 1.98 |
| Cc1ccc(-c2nc3c4ccccc4ccn3c2CN2CCCCC2)cc1 | 0 | -0.01 |

| SMILES | % Inhibition [%] | Z score |
| --- | --- | --- |
| O=C(CCCc1ccc(F)c(F)c1)N[C@H]1CC12CCOCC2 | 6 | -1.16 |
| Cc1nc(NCc2nc(-c3cnccn3)n[nH]2)c2cccnc2n1 | -15 | 1.96 |
| O=C(c1nccc2ccccc12)N1CCOc2ccc(N3CCCC3)cc2C1 | 6 | -1.14 |
| CN([C@H]1CCc2nn(CC3CC3)c(=O)n2CC1)S(=O)(=O)c1ccc2c(c1)CCC2 | -13 | 2.04 |
| CCN1C(=O)Cc2cc(NS(=O)(=O)c3ccc4c(c3)OCCO4)ccc21 | -15 | 1.74 |
| COC(=O)[C@H](NCc1nnc(C)o1)c1ccc(Cl)cc1Cl | -13 | 1.69 |
| COc1ccc(Cl)cc1C(=O)Nc1ccc2nc3n(c(=O)c2c1)CCCC3 | 0 | 0.05 |
| Cc1ccccc1NS(=O)(=O)CC(C)C | -5 | 0.65 |
| CCCCN1CCOC[C@H]1C(=O)Nc1cccc(-n2cnnc2C)c1 | -8 | 1.17 |
| Cc1cccc(CN2C[C@H](O)[C@@H](N3CCN(c4ccccn4)CC3)C2)c1 | -29 | 2.55 |
| O=C(Cc1cccs1)NCCc1c[nH]cn1 | -8 | 1.57 |
| Cc1ccccc1OCCCC(=O)N1CCCc2cc(S(=O)(=O)N3CCCC3)ccc21 | -1 | 0.13 |
| COCC(C)(C)NCc1ccc(OC)c(OC)c1 | -3 | 0.37 |
| O=C(c1cccc(F)c1)N(CC(=O)N1CCc2sccc2C1COc1ccc(Cl)cc1)CC1CCCO1 (stereo not given) | -11 | 1.4 |
| CCOc1ccc2c(c1)[C@@H](C)CC(C)(C)N2S(=O)(=O)c1cc(C(=O)N(C)C)n(C)c1 | 1 | -0.12 |
| O=C(NC[C@H]1Cn2cc(-c3ccccc3)nc2CO1)NC1CCCCC1 | 31 | -3.58 |
| CCCn1nc(-c2cc(C)sc2C)cc1C(=O)Nc1ccc(F)cc1 | -2 | 0.18 |
| O=C(CC1CCOCC1)N1CCC(Cc2ccccc2)CC1 | -5 | 0.98 |
| Cc1cccc(C)c1NCC(=O)Nc1nc(C#N)c(C#N)[nH]1 | -1 | 0.1 |
| CC1(C)NC(=O)N(Cc2nc3cc(C(F)(F)F)ccc3o2)C1=O | -4 | 0.76 |
| Cc1nn(C)c2nc(O[C@@H](C)C(=O)N3CCCCCC3)cc(-c3ccccc3)c12 | -1 | 0.11 |
| NC(=O)C1(NCCOc2ccc(F)cc2)CCCCC1 | -1 | 0.13 |
| Cc1noc(C2CN(C(=O)c3c(C)nn(C)c3C)CC2c2ccccc2)n1 (stereo not given) | -9 | 1.71 |
| CN(CCn1cccn1)S(=O)(=O)c1ccc2c(c1)OCCCO2 | 3 | -0.47 |
| CN(C)S(=O)(=O)c1cccc(C(=O)NCC(C)(C)CNC(=O)c2cccc(S(=O)(=O)N(C)C)c2)c1 | -6 | 1.06 |
| COC(=O)NC[C@H](O)c1ccc(-c2ccco2)cc1 | -5 | 0.61 |
| Cc1ccc2c(c1)CCCN2C(=O)c1c(-c2ccccc2)noc1C | -12 | 1.37 |
